One assay has as its system human CRHR2. The assay can be described thus: CRH-induced luciferase reporter blocking assay, CHO-CRE-hCRHR2 cells. In kind it is cell-based. As to the method:
To create CHO-CRE-hCRHR1, -hCRHR2, -mCRHR1, and -mCRHR2 reporter cell lines, pcDNA3.1-hCRHR1, -hCRHR2, -mCRHR1, and -mCRHR2 were introduced into CHO-CRE cells established above by electroporation as described above. Selection antibiotics hygromycin at 500 μg/ml and G418 at 1,000 μg/ml were employed. Individual established stable cell lines were characterized by both CRH and forskolin stimulation.
Activated GPCR proteins increase production of the intracellular cAMP. CHO-CRE-human CRHR1 stable clone 11 was generated by introduction of pcDNA3.1-human CRHR1 under the selection of G418 and hygromycin. Human CRHR1 expression in CHO-CRE-hCRHR1 Clone 11 was confirmed by flow cytometry (data not shown). To further validate that the cell line was functional, CHO-CRE-hCRHR1 Clone 11 cells were treated with forskolin and CRH peptide. […] Subsequently CHO-CRE-hCRHR2 Clone 32, -mCRHR1 Clone 22, and -mCRHR2 Clone 8 cell lines were established using similar methodology and validated with CRH treatment (data not shown).
Blocking CRHR1 by small molecules or neutralization of CRH peptide can reduce luciferase expression if the CRH-CRHR1 system works in CHO-CRE-hCRHR1 cells. Antalarmin, a small molecule CRHR1 antagonist, blocked CRH-mediated luciferase expression in CHO-CRE-hCRHR1 Clone 11 (data not shown). Furthermore, sheep anti-CRH polyclonal antibody reduced CRH-mediated luciferase expression in these cells (data not shown). Likewise, sheep anti-CRH polyclonal antibody blocked CRH-mediated luciferase expression in CHO-CRE-hCRHR2, CHO-CRE-mCRHR1, and CHO-CRE-mCRHR2 cells (data not shown).
(§1) Cells were digested by trypsin-EDTA (Life technologies, Cat #:12604-013), centrifuged at 1,000 rpm for 5 min, resuspended in growth medium, counted using a cell counter, seeded at a concentration of 5,000 cells per 100 μl in 96-well flat plates, and incubated overnight. 50 μl of 4× serially diluted antibodies was added (8 points, 1/4 diluted by growth medium) to plates containing CHO-CRE-hCRHR1 cells, and 50 μl of 4×CRH (4× is 2 nM, final is 0.5 nM) was added. Similarly, 4×CRH (4× is 0.4 nM, final is 0.1 nM) was added to CHO-CRE-hCRHR2 cells and CHO-CRE-mCRHR1 cells, and 4×CRH (4× is 20 nM, final is 5 nM) was added to CHO-CRE-mCRHR2 cells. Next, plates were incubated 4-6 hours at 37° C. in a CO2 incubator. 60 μl of culture medium was removed, to which was added 60 μl of Bio-Glo luciferase, followed by incubation for 10 min at RT. Plates were read in a luciferase plate reader (EnVision, PerkinElmer).

The subject of another assay is mouse CRHR2. The assay can be described thus: CRH-induced luciferase reporter blocking assay, CHO-CRE-mCRHR2 cells. It is filed as cell-based. As to the method: To create CHO-CRE-hCRHR1, -hCRHR2, -mCRHR1, and -mCRHR2 reporter cell lines, pcDNA3.1-hCRHR1, -hCRHR2, -mCRHR1, and -mCRHR2 were introduced into CHO-CRE cells established above by electroporation as described above. Selection antibiotics hygromycin at 500 μg/ml and G418 at 1,000 μg/ml were employed. Individual established stable cell lines were characterized by both CRH and forskolin stimulation. […]
as §1
A general note: A reporter such as luciferase makes a cellular process visible.

For the next assay, the target named is T1, biotinylated CRH (Homo sapiens, UniProt P06850).
T1 construct: purchased GL Biochem 784751
T1 sequence (P06850 154-194): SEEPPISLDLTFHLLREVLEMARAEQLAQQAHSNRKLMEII
Description: Affinity determination with Octet. In kind it is binding. As to the method:
Octet® Red 96e was used for affinity measurement. Octet® running buffer was prepared by diluting kinetics buffer 10× (Fortebio, Cat #18-1105) in PBS according to the manufacturer's instructions. Two columns of SA sensors (Fortebio, Cat #18-5019) were hydrated in running buffer for 10 mins, one for ligand capturing and the other for reference. Antibodies were 2-fold diluted and added into a 96-well plate. 30 nM biotinylated CRH (GL Biochem, Cat #784751) was captured by the first column of SA sensors for 20 seconds, while reference sensors were dipped into buffer wells. After a 60-second baseline step, sensors were dipped into analyte and buffer wells successively, with the association and dissociation time of 180 seconds and 800 seconds, respectively. Sensors were regenerated in glycine pH1.5 (Cytiva, Cat #BR-1003-54) before the next cycle. […] Signals of reference wells and reference sensors were subtracted by selecting “Double reference” before data fitting.

For assay [1], the system named is constitutively high plasma ACTH in Mrap1 KO mice. Description: Mrap1 KO mice constitutively high ACTH model. It is filed as in vivo, mouse. The note with it: single dose 20 mg/kg. As to the method: 8-10 week old wildtype female C57BL/6 mice were obtained from Charles River Laboratories. Mrap1 KO mice were obtained from Queen Mary University of London, UK. SSR125543A, a small molecule CRHR1 antagonist, was obtained from Axon Medchem (Cat #Axon 1799). Mouse Corticosterone (55-Corms-E01) and adrenocorticotropic hormone (ACTH) ELISA kits (21-ACTHU-E01) were obtained from ALPCO, USA. All procedures were carried out in accordance with the Guide for the Care and Use of Laboratory Animals of the National Institutes of Health. Protocols were approved by Charles River Laboratories Institutional Animal Care and Use Committee (IACUC).
To generate Mrap1 KO mice, Mrap1−/− male mice were bred with Mrap1+/− female mice. Corticosterone hormone replacement was performed by administering 50 μg/ml in drinking water to breeder cages when female mice were pregnant and their pregnancies palpable (approximately embryonic day 10). Drinking water was changed weekly, and treatment was stopped at weaning. Mice were uniquely identified with ear tags at the time of tail clipping to match future genotype with each mouse. DNA was extracted from tail tissue and used to genotype mice.
[…] On day 2 or 3, 14 and 28, 200 μl of blood was collected in EDTA tubes from the submandibular vein of each mouse. […]

Broadly, the IC50 is the point on the concentration scale where inhibition reaches its midpoint. Higher therefore signals weaker potency in that assay. The term kon denotes the second-order rate constant of association. Read a high kon as faster complex formation.

Numbering of substitutions follows the chain as printed.

B1: PR302341-55: Series 10 humanized, PTM-removed anti-CRH mAb (Table 9), scaled up for in vivo studies (antibody)
heavy: QVQLVQSGAEVKKPGASVKVSCKASGYTFTDYFMKWVRQAPGQRLEWMGVINPNNADIFYNQKFKGRVTITRDTSASTAYMELSSLRSEDTAVYYCARGTDRALFAYWGQGTLVTVSS[human IgG1 constant region not listed]
light: DVVMTQSPLSLPVTLGQPASISCRSGQSIVHSDGNTYLEWYQQRPGQSPRLLIYKVSNRFSGVPDRFSGSGSGTDFTLKISRVEAEDLGVYYCFQGSHIPWTFGGGTKVEIKRTVAAPSVFIFPPSDEQLKSGTASVVCLLNNFYPREAKVQWKVDNALQSGNSQESVTEQDSKDSTYSLSSTLTLSKADYEKHKVYACEVTHQGLSSPVTKSFNRGEC
As for B1, 1.63 nM corresponded to half-maximal inhibition with human CRHR2 (Table 9, hCRHR2) (IC50). In addition, in the assay on mouse CRHR2 (Table 9, mCrhr2), half-maximal inhibition (IC50) required 2.08 nM. Also, in the assay with biotinylated CRH, the “kdis” value is less than 1e-07 s⁻¹ and the “kon” value turned out to be 1.2e+06 M⁻¹ s⁻¹. Also, in assay [1], the “plasma ACTH concentrations in Mrap1 KO mice” value is recorded as “markedly reduced”.

B2: PR302341-33 (antibody)
heavy: B1 heavy with R44G, I70M, R72V, T74K, A76I, S85R, E89D
light: B1 light with G34A
Turning to B2, the IC50 is 1.29 nM in the assay with human CRHR2 (Table 9, hCRHR2) and 1.86 nM in the assay with mouse CRHR2 (Table 9, mCrhr2).

B3: PR302341-37 (antibody)
heavy: B1 heavy with R44G, N55S, A56G, I70M, R72V, T74K, A76I, S85R, E89D
light: B1 light with G34A
As to B3, the IC50 in the assay on human CRHR2 (Table 9, hCRHR2) is 2.35 nM; in the assay on mouse CRHR2 (Table 9, mCrhr2) it was approximately 2.12 nM.

B4: PR302341-48: Series 10 humanized, PTM-removed anti-CRH mAb (Table 9), scaled up for in vivo studies (antibody)
heavy: B1 heavy with R44G, N55Q, A56G, I70M, R72V, T74K, A76T
light: B1 light with S7T, L11S, G34A, S48P, S72A
For B4, the IC50 in the assay with human CRHR2 (Table 9, hCRHR2) is approximately 2.23 nM. The same molecule yielded an IC50 with mouse CRHR2 (Table 9, mCrhr2) of 1.87 nM. Besides, in the assay with biotinylated CRH, the “kdis” value was less than 1e-07 s⁻¹ and the “kon” value came to 1.04e+06 M⁻¹ s⁻¹.

B5: PR302341-29 (antibody)
heavy: B1 heavy with R44G, I70M, R72V, T74K, A76I, S85R, E89D
light: B1 light
Take B5: the IC50 in the assay on human CRHR2 (Table 9, hCRHR2) amounted to 1.18 nM; in the assay with mouse CRHR2 (Table 9, mCrhr2) it was 0.413 nM.

B6: PR302341-60: Series 10 humanized, PTM-removed anti-CRH mAb (Table 9), scaled up for in vivo studies (antibody)
heavy: B1 heavy with N55Q, A56G
light: B1 light with G34A
In the assay with human CRHR2 (Table 9, hCRHR2), B6 yielded an IC50 of 3.72 nM. The molecule also had an IC50 in the assay on mouse CRHR2 (Table 9, mCrhr2) of 3.71 nM. Moreover, in the assay with biotinylated CRH, the “kdis” value was 3.35e-05 s⁻¹ and the “kon” value came out at 2.49e+06 M⁻¹ s⁻¹. Besides, the “plasma ACTH concentrations in Mrap1 KO mice” value in assay [1] is given as “markedly reduced”.

B7: PR302341-59 (antibody)
heavy: B1 heavy with N55S, A56G
light: B1 light with G34A
Take B7: the IC50 in the assay on human CRHR2 (Table 9, hCRHR2) stood at 3.01 nM; in the assay on mouse CRHR2 (Table 9, mCrhr2), 3 nM.

B8: PR006746: ΔPTM variant of Series 2 mAb PR006669; HCDR2 54DS55 (antibody)
heavy: EVQLVESGGGLVQPGGSLRLSCAASGFTFSDNWMSWVRQAPGKGLEWVANIKQDSSENYYVDSVKGRFTISRDNAKNSLYLQMNSLRAEDTAVYYCSRGLALWGWGQGTLVTVSS[human IgG1 constant region not listed]
light: DIVMTHSPLSLPVTPGDPASISCRSSQSLLHSTGYNYLDWYLQKPGQSPQLLIYLGSNRASGVPDRFSGSGSGTDFTLKFIRVEAEDVGVYYCMQALQTPYTFGQGTKLEIKRTVAAPSVFIFPPSDEQLKSGTASVVCLLNNFYPREAKVQWKVDNALQSGNSQESVTEQDSKDSTYSLSSTLTLSKADYEKHKVYACEVTHQGLSSPVTKSFNRGEC
For B8, the IC50 in the assay with human CRHR2 (CHO-CRE-hCRHR2 cells, 0.1 nM CRH) amounted to 37.8 nM; with mouse CRHR2 (CHO-CRE-mCRHR2 cells, 5 nM CRH), 9.31 nM. Also, in the assay with biotinylated CRH, the “kdis” value turned out to be 8.69e-05 s⁻¹.

The values are drawn from US20260042834A1, “ANTI-CORTICOTROPIN-RELEASING HORMONE ANTIBODIES AND POLYCYSTIC OVARY SYNDROME” (HBM ALPHA THERAPEUTICS, INC., priority 2022, published 2026).
